Reference: the supplement of paper PMC3334620
Over roughly 33,000 sequences, “E-score (-0.5 to 0.5)” has its median near -0.021; the highest 2% begin near 0.32. Some of the results follow.

These sequences were tested against T1, Zap1 (UniProt P47043) (assay: PBM E-score (8-mer binding enrichment) (E-score (-0.5 to 0.5)); higher = stronger / more preferred TF binding; most listed sequences are background and not binding sites). Conditions: protein concentration: 200 nM; construct: GST-full length.
T1 sequence: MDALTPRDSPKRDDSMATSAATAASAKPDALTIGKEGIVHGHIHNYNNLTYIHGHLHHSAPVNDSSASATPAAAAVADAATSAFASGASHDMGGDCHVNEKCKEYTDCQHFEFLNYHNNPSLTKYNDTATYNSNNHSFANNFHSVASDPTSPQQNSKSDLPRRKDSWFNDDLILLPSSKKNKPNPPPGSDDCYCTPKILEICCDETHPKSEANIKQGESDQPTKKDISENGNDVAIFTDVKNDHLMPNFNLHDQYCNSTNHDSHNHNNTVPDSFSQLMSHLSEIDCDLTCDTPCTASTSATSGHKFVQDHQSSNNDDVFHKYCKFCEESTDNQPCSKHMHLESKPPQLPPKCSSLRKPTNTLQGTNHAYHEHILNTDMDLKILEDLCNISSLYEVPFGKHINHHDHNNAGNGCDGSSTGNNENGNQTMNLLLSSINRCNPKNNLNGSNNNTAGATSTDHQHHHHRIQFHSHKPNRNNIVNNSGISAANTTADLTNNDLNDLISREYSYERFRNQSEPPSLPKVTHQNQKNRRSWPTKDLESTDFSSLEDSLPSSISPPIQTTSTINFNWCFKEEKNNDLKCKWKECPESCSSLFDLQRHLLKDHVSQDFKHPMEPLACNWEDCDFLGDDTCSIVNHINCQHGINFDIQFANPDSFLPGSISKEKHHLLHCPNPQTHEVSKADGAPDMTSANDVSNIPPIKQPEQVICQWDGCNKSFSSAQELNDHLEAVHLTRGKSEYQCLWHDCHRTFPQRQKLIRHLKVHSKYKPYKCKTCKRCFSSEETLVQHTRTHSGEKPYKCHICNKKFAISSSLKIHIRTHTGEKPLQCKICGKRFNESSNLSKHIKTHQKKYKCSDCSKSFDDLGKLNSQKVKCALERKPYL
Method in brief: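 For each ungapped eight-base word taken together with its reverse complement, the Universal PBM Analysis Suite assigned an E-score. Binding data came from GST-tagged yeast transcription factors, applied at about 100-200 nM, on universal all-10-mer Agilent arrays made double-stranded by primer extension. Fluorescent anti-GST marked bound protein, and scans were normalised with masliner.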

| Sequence | PBM E-score |
| --- | --- |
| AGATGTCC | -0.0648 |
| GAGTAAAA | -0.0343 |
| ACTAAATG | -0.036 |
| GCCCACGA | -0.113 |
| AATACCCG | 0.177 |
| ATCTTCGA | 0.00964 |
| CTGGCAAA | 0.0558 |
| GTGCGATA | -0.0457 |
| ACTATGTA | -0.153 |
| ATGACTTG | -0.111 |
| CTGAACTC | -0.111 |
| TCCTCCAA | -0.0474 |
| GAGTGTGC | -0.142 |
| ATGACTGC | -0.127 |
| ACTCCAAT | 0.00611 |
| GCGTGAAA | 0.0792 |
| GAGAATGC | -0.181 |
| TCAATAGA | -0.0863 |
| ACAACGCC | -0.00641 |
| CCCCAAGC | 0.0513 |
| CGGCCGAG | 0.00749 |
| CCTAGGGA | -0.0988 |
| GAGCGCCC | -0.171 |
| CACAATTC | 0.024 |
| TACATAAA | 0.112 |

| Sequence | PBM E-score |
| --- | --- |
| AGCGAGTC | -0.193 |
| AGTGCAAG | -0.0595 |
| ATGGCCTC | 0.142 |
| AACCGAGC | -0.0403 |
| AACGCCGC | -0.0363 |
| GTAGTAAC | 0.127 |
| CCCTATAG | 0.271 |
| CGTTTACC | 0.00669 |
| GATCCAAC | 0.013 |
| CTGAGCAG | 0.0476 |
| CTTACAAC | 0.097 |
| CAGTAGAA | 0.0546 |
| AACTTCCT | 0.0316 |
| CGGGTGAC | 0.167 |
| GCGACGCC | -0.162 |
| GCCGTCAC | 0.0781 |
| AGAATATG | 0.0927 |
| CTATTCTA | 0.119 |
| CACAAGGA | 0.168 |
| AATTGCGG | 0.0477 |
| ATAAAGCC | -0.202 |
| GTTCGAGA | -0.0717 |
| ACTGGGGG | -0.305 |
| CTTCATCA | 0.088 |
| CGATAGGC | -0.213 |

| Sequence | PBM E-score |
| --- | --- |
| GGAGGAAA | -0.116 |
| GTGCTGCA | -0.0788 |
| GCGTGCGA | -0.0265 |
| GCTGACGA | -0.0337 |
| CGTGAAAA | 0.0967 |
| CCCGGAGA | 0.0528 |
| ATCAGGGC | -0.249 |
| CAAGAATG | -0.0459 |
| GATAACAC | -0.00284 |
| AGGTATCC | 0.248 |
| ACATACAC | 0.0555 |
| ATGGTGAC | 0.0548 |
| AGGGACTA | -0.104 |
| CAGAACTC | -0.0409 |
| AATGATGG | -0.00312 |
| AATTCCCG | -0.00639 |
| ACCTCGCC | -0.0469 |
| AAAACTGG | 0.0376 |
| ACAGCACT | -0.0476 |
| CGAAGCAC | -0.152 |
| TATACATA | 0.106 |
| CGGGACAC | -0.105 |
| CAATGTTA | -0.0616 |
| CGTCGTTA | -0.0653 |
| AACTAATT | 0.181 |

| Sequence | PBM E-score |
| --- | --- |
| GCTTTCTA | 0.112 |
| CACACAAG | 0.186 |
| GGCGACCA | -0.0685 |
| GTAGAACA | -0.135 |
| GGCTGTTA | 0.0308 |
| ACAGCATG | -0.0779 |
| AATAGCCT | -0.161 |
| AGGATATA | 0.0935 |
| GCTTTAGA | -0.115 |
| CCAGTGTA | -0.00071 |
| TAAGCTTA | 0.0634 |
| TTCAAAAA | 0.255 |
| CAAGCAAA | -0.0135 |
| CCATCTGA | -0.0622 |
| CACACATC | -0.272 |
| GTCGGACA | -0.0115 |
| TGGAGACA | -0.181 |
| TCAGTTAA | 0.097 |
| ACTGCATG | -0.125 |
| ACGACTTC | -0.206 |
| GGCGTACA | -0.216 |
| ATATTCAC | -0.0786 |
| CCACGTCC | -0.145 |
| CACTTATC | -0.00335 |
| CAATTTAA | 0.0336 |

| Sequence | PBM E-score |
| --- | --- |
| ACTGGTAG | -0.00416 |
| CTGGGCAA | -0.11 |
| CAAGGGGC | 0.0367 |
| AAGACGCG | -0.0611 |
| ACACAATG | 0.102 |
| ACATCCGA | -0.142 |
| TAATGACA | 0.0154 |
| CCGCTACG | -0.128 |
| CGGTTCTC | -0.0391 |
| ACCTGTTG | 0.265 |
| GAGGCACC | -0.1 |
| CGTGTTGC | -0.0452 |
| CGATCGCG | -0.00514 |
| AGTAACTG | -0.154 |
| ACGGACAA | 0.068 |
| AGCAAACT | 0.0479 |
| AAAATAGC | -0.213 |
| ACTTTTTC | -0.0761 |
| CAGCCTCA | -0.0372 |
| GCTCCTCC | -0.207 |
| CACCGCAA | 0.304 |
| AGACAAAA | -0.00478 |
| ATGCTGGA | -0.0866 |
| GCAGCGGA | -0.181 |
| AAGTGACA | 0.117 |

| Sequence | PBM E-score |
| --- | --- |
| GCACTCGC | -0.235 |
| AACACGAC | 0.0766 |
| GGTGTTAC | 0.0513 |
| CCACCTCA | 0.119 |
| ACTTAGCA | -0.059 |
| AATCTCAA | 0.278 |
| GAGCTTCC | -0.231 |
| CCTCCGCA | -0.0881 |
| GGGTGTGA | -0.0632 |
| CATCCATA | 0.0171 |
| CACAGGAA | -0.0488 |
| GCATTGAC | -0.124 |
| ACAATCGG | 0.0205 |
| TACCCATA | 0.266 |
| GCTAGCAC | -0.176 |
| AGATAGCC | -0.152 |
| CGCAGACC | -0.147 |
| ATCTTCTG | -0.125 |
| CCCGACGC | -0.0442 |
| AGTAACGG | 0.126 |
| GGGATCAC | -0.099 |
| CGGCCCTC | -0.24 |
| AGGAGTAT | -0.207 |
| CCGATAGC | -0.225 |
| GATGTGCC | -0.157 |

| Sequence | PBM E-score |
| --- | --- |
| GGGATAGA | -0.159 |
| GACCTGGC | -0.0867 |
| AACATGGA | 0.061 |
| AAGAAGAC | 0.00534 |
| AACCCACA | 0.331 |
| CCCGATCA | -0.221 |
| CAGAATTC | 0.12 |
| CACAGTGG | -0.0435 |
| GGACCGAC | -0.00091 |
| CAATCGAC | -0.0378 |
| ACGAGAGT | -0.197 |
| GTTATTTA | 0.325 |
| AAAGCTGA | -0.0433 |
| AGCTTAGC | -0.117 |
| AGGTTTCC | 0.135 |
| CTCCTCCA | -0.196 |
| AGAGGAAC | -0.208 |
| ATGAATAG | 0.0537 |
| AGCGTTAG | -0.147 |
| GTGAAAAA | 0.175 |
| CCCTTAGG | 0.29 |
| ATGAACAG | -0.00688 |
